From article PMC10340229, “EpoR Activation Stimulates Erythroid Precursor Proliferation by Inducing Phosphorylation of Tyrosine-88 of the CDK-Inhibitor p27^Kip1” (Cells, 2023)

Molecular target: T1, GST–hIC EpoR (273–508aa), cytoplasmic domain of human EpoR (human, UniProt P19235 273-508)
T1 construct: also called GST–EpoR; source: E. coli BL21, purified on glutathione Sepharose beads
T1 sequence (looked up): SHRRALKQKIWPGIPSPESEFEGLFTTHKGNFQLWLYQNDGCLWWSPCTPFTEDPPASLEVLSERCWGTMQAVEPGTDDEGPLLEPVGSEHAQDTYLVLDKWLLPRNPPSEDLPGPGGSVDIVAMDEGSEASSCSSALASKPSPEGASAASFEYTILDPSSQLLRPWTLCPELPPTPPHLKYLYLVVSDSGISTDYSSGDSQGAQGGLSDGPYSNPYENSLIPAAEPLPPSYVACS
Assay: pull-down; GST fusion proteins bound on glutathione Sepharose beads incubated for 2 h at 4 °C with purified bacterial p27, p27 mutants or p27 fragments; extensive washing; bound p27 detected by Western blot
Settings: both partners purified

B1: His–tagged p27 N–terminus ([…]) (domain or fragment)
chain: not shown
notes: also called N–terminal p27; source: bacteria, purified by heat treatment
B1: binds.
